Test results published in the supplement of paper PMC12632987.
Over roughly 4,500 sequences, “median log2 fold change of GCK-ALFA target abundance (FLAG IP / Myc IP barcode read proportion)” has its median near 0.078; the lowest 2% begin near -0.6. The list shows a part of the results.

B1: GBRAP_53_6422 (protein)
chain: KEAEIAALKAQIRELTEQATKAGPAERAALAAQIGAAFAELKAAGMPDEELTELAKEVAEKLKAAGADPADLVALAKAMEALGLEEATAEIGEVIVEDLE
B2: GBRAP_52_6197 (protein)
chain: MRERLRALAQEVVELVKAGREEEAEALLREAAETLSLEELRALGEEFAALAREAAPEDFDAVFRAAELFAEVLEEEGIPEVLADDLLARVAAALYEREQA
B3: GBRAP_166_4891 (protein)
chain: STAEAIAQIRALAAATIARIASLTDEELLASFIDMVEIVEAAGATPELRAALAAEFARIVAAAVAAGRDWARVESLALAAVGDDEELLDAVEAALAAARA
B4: GBRAP_52_6156 (protein)
chain: AEARAQAYADELIALVKAGDEAGIEALLREIAATLSEEEITLMMDIVAEQVATLSPEQQERVVEAAIRLEDILIEAGHDENLASYQTARVAGAAYKALQA
B5: GBRAP_184_5332 (protein)
chain: KTLEVHIENLPIEEIIKKVEEAAKKAAEEGADLLISIDASGYSIEEIIELIKKIGEIAKKYGVKNVTLGIDKEVNEEEADKLIEEADKYGIRLVLPLKDE
B6: GBRAP_160_4557 (protein)
chain: SEEKKKAIEEIRELLEEAIEEMKTLSPAEIVTLARGTLGEALAIVFENDAFTDEEEDVAGEKADAAEAALRAAAAASPEELVALAREKAEELVEALEELE
B7: GBRAP_11_2632 (protein)
chain: KKETLKKAAELAKKAKEVLKQLKEKGVDDEELLKKLEELLEELEKLVKKIGDKALENDVKVAKELLEEAKADPENKEFYVNLLLAQIEIIEAELEEKIEE
B8: GBRAP_80_6831 (protein)
chain: MEERLEAAIEAIREIDPEIAEVVEEIVRLAREMGVPLERLARMAEAVLELAKKDKEKALELVRRALEEVRAAAAEGNAEEVAAILAELESDALLAVEELE
B9: GBRAP_166_4954 (protein)
chain: NLEEVIKETKEYIDELAEKMKTANEEEKLELYAEMAEKIQEAKDAGVSNEDILELIKYAMKKVKEVGGSVDQFMGAIDMFVDLSEEELDIVYAEADKVKA
B10: GBRAP_128_3480 (protein)
chain: STEEAVEETKKLMEEIKNSSLEEVKELSKKLVELLNSLNKEEREAVTEVIIEMLPELSVEKLEILADVFREKRPELDEFTAIEVADIEIEALMEALEKEE
B11: GBRAP_128_3572 (protein)
chain: SAEETLERARELIERIITSDLEEARRAAEELFRLIGESDAETRERIEELVLAALPQLTREKLEVLADVARRLRPELDPLGAEVAADIEVAALNEAEELEE
B12: GBRAP_80_6763 (protein)
chain: MMEELEEALEELSELLPELAEELRATVEALLELGVPVEDLLRLLKALVELAKLDKEKAEAILREFIAEVNEAIARGDLEEARALVIDAESDALLEVEELE
B13: GBRAP_11_2734 (protein)
chain: KKEKLEEVKELAEKAAEAAEELLKRGVDDEELRKKIEELLKELREKVEELEDEFLKELVEIAEEEFRESLADPENAEEYLERARAALRVLAGQVQLLIDE
B14: GBRAP_125_3093 (protein)
chain: HMEEILAALRRLALALGYSEEDAELLAELAANSSVRQTLYALFEAEGYEEVAELVEKLTEEQAEAVLLRLAAWLDEHPDASKEEVVEQAKALIEEALAAA
B15: GBRAP_53_6388 (protein)
chain: REEEIERLVREYRELLERIREAGPEEAVRLGEEARELLVELARLGADDETLERLAREFAELVEEHPELEPLALELAKELAALGREEAAGILAERLVEELE
B16: GBRAP_139_3735 (protein)
chain: AEAEAKIAEAVALTRRSVATGGAYVAELAALLASMDEETAEEALEAMAEVLKAEDFDTVEALFDALIDTLLTEHDDEDLATMAEAARNRALAEVAVREEA
B17: GBRAP_186_5387 (protein)
chain: EEEAEKELDKVIEEAEAKGYRVIVAYLENKSVEETKAAIRREAEAVAALAKETGKKYALIVVVKTKKEDIEEIKAFADELNKEYLAKTGVEVYVVAEDSE
B18: GBRAP_53_6423 (protein)
chain: MEERIERLKEEIRRATEEATKADAARRAELVKRIGELFKELKEAGAPEEELEELAREVAEKLAAAGAPVSDLVALANTMAELGLEEGTAAIGEVIVEDLE
B19: GBRAP_83_6996 (protein)
chain: KEKVAVAAHGDHLIEAAEIAIELTKEEGKEVVLEFITTPEDREKVLEAVKLLAEAGIETEIIVIGLNMTEEEAEELKKEMEEIAKAAGVNIKIEVYLEEL
B20: GBRAP_160_3979 (protein)
chain: SAEIEALKKEIEEIFEEAKEMIEGESFEERLAIIAVAVGEIILLLEENPLVSDEAVEKVAEIGDELIEYLKENPDLTEEEIKEKIEEALEKIKKVIEEDA
B21: GBRAP_195_5415 (protein)
chain: MKVATVVVTIEASDTPEEIVKKILEKVKEAVAKGAKTVVVVVKRDPKVPEETVLKAVEEVKKKLPDVNITVEVFDDPSLTDEQLQKIGEALAATIEEELE
B22: GBRAP_160_4664 (protein)
chain: SEEIEKLLEEIRELLLETLDWTKDLDPASREALLRAAVGDVLQLLFENPLVTDEVEDYAEEVLEEMREYVLANPDLTDEEREALVDEVVDKIREKILEES
B23: GBRAP_128_3378 (protein)
chain: INEERLKEIRELAEAAIKSDVETTAELTKKIVELMGKLSPEEREEAAEIVISLLPKFSEEKLEAIADTIREQRPKLDPLGQLLANEVEVEALNEAEELEE
B24: GBRAP_160_4186 (protein)
chain: SEEIEKLIKEIKEIAEEAIKLIEGQSHEERIVIVAGALGQIILLLSSSPIISDETVDKVAELADETIATLKANPNLTEEEIKELIKETTEKIIEIIKKSH
B25: GBRAP_128_3592 (protein)
chain: SMEEVKERTRKLLEEMKTADAATRKAIADELAEEFLTLTPEEQEAMAETIEELLPELSAEDLDILADAFRAAMPKADPEKANLLADIAVAALNEAVEKEE
B26: GBRAP_139_3736 (protein)
chain: DAAEAAVAEAVELARRSVEEGLAYVEELAAHLASLDEETAERALDAIAEVMKEESFETVDAFFDALEEALLTRHKNEDLAEMVEAARNRALAEVAVREEE
B27: GBRAP_160_4109 (protein)
chain: SEKVKKLIADFEAVAAEVLADAANLTPQQIANEFEVESGSVIMDAIEELGISHEVAEKLLEVVDKARAALLANTDRDLATITAILDAALAEIRKILEENE
B28: GBRAP_128_3404 (protein)
chain: SEEEKVEKAKELIEKIVEADVETARELAEELMELFGELSLEAQEKVKEYIEEALPKLTAEKLDVLADVLREKRPEFSPEAQEIINDWEVAALNAAEEKEE
B29: GBRAP_160_4616 (protein)
chain: SEKVEELIKEVEEEFEEAKEMVEGQTAEQRATIVDVTFGKIIIEADELEVVSDESLEKIDEIRDEVVDTILANPDLTDEEVKALIDEAKKKVIEIIEKDK

biological target: GABARAP, O95166; assay: median log2 fold change of GCK-ALFA target abundance (FLAG IP / Myc IP barcode read proportion) (log2 ratio); each designed protein is fused to an ALFA-tag nanobody in HEK293 cells to bring the named protein to FLAG-tagged glucokinase (GCK); Myc marks an untargeted standard; higher = target protein stabilised (more abundant); details: target protein: 3xFLAG-MCP-GCK-ALFA reporter; HEK293 landing pad (RPLP)
Procedure, shortened: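 Sequencing of reverse-transcribed, amplified circular RNA barcodes from anti-FLAG and anti-Myc immunoprecipitates provided the readout for an ALFA-nanobody-fused binder library recombined into HEK293 landing-pad cells. Those cells were induced with 2 μg mL^−1 doxycycline, transfected with a plasmid expressing a FLAG-tagged target and a Myc-tagged standard, and lysed after 48 h. Target abundance is the per-binder median log2 ratio of FLAG to Myc barcode read proportions. Only barcodes at a proportion of ≥10^−7 in both replicates and binders with ≥3 barcodes per replicate were kept, with a 10^−6 pseudocount added before the two replicates were pooled.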

Sequence of GABARAP, O95166 (O95166 whole entry, the tested form may be a part): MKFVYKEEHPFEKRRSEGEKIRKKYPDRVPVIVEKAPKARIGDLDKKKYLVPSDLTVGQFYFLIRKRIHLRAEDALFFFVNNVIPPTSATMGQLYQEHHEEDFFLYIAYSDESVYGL

Row | Binder | median log2 fold change
1 | B1 | 0.285
2 | B2 | 0.0944
3 | B3 | 0.118
4 | B4 | -0.134
5 | B5 | -0.598
6 | B6 | 0.212
7 | B7 | 0.00505
8 | B8 | 0.2
9 | B9 | 0.135
10 | B10 | -0.289
11 | B11 | 0.225
12 | B12 | 0.0537
13 | B13 | 0.112
14 | B14 | 0.0462
15 | B15 | 0.222
16 | B16 | 0.139
17 | B17 | 0.214
18 | B18 | 0.379
19 | B19 | -0.155
20 | B20 | -0.425
21 | B21 | 0.229
22 | B22 | -0.406
23 | B23 | 0.172
24 | B24 | 0.231
25 | B25 | 0.0657
26 | B26 | 0.209
27 | B27 | 0.136
28 | B28 | 0.27
29 | B29 | 0.254
